# Laboratory results: PubChem BioAssay (Tox21)
# Several values for one entry are separate records, joined by “and”; a condition that tells them apart may be missing. Equal entries are not always repeated. Inconclusive means that the source gave no clear call. Such entries were picked first, then a sample of the others. Potencies of inconclusive entries are doubtful fits and often do not repeat. Activity calls are given as the source filed them. Unless noted, calls come from the whole dose curve; as a rule, active = well fitted curve in the direction sought with a large enough effect in the repeat runs; inconclusive = weak or mixed curves; inactive = no such curve, though single readings can be large; an effect the other way counts as inactive or inconclusive.
# Legend:
# [1] = target: Peroxisome proliferator-activated receptor gamma (Homo sapiens) (UniProt P37231); test: qHTS assay to identify small molecule agonists of the peroxisome proliferator-activated receptor gamma (PPARg) signaling pathway (AID 743094; active = well fitted activation curve with a large enough effect in the signal ratio in the repeat runs, not every such curve was filed as active; inconclusive = weak or mixed curves, or effect the other way; inactive = no such curve, though single readings can be large or run the other way; the % refers to the signal ratio; for activation: % is set by controls: 0 for no effect and ±100 for the full control effect); conditions: HEK293H PPARg-UAS-bla, beta-lactamase FRET ratio, 17 h; activation: at 57 µM (top of the series) unless noted
# In short: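 Stably transfected HEK293H cells (GeneBLAzer PPARg UAS-bla) were incubated with test substances for 17 h at 37C after a 5 h pre-incubation; beta-lactamase activity was then detected by FRET substrate fluorescence.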
# [2] = qHTS assay to identify small molecule antagonists of the peroxisome proliferator-activated receptor gamma (PPARg) signaling pathway - cell viability counter screen (AID 743194); conditions: PPARg-bla HEK293H viability, CellTiter-Glo luminescence, 17 h, co-treated with 50 nM rosiglitazone; activity change, negative = cytotoxicity: at 62.6 µM (top of the series) unless noted; note: nearly all actives have a fitted effect of over 55% in size
# In short: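 Viability was measured as CellTiter-Glo luminescence in GeneBLAzer PPARg UAS-bla HEK293H cells. These cells had been exposed 17 h at 37 C to compounds together with rosiglitazone at 50 nM final, with the beta-lactamase readout taken in the same wells.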
# [3] = qHTS assay for small molecule agonists of the antioxidant response element (ARE) signaling pathway (AID 743202; active = well fitted activation curve with a large enough effect in the signal ratio in the repeat runs, not every such curve was filed as active; inconclusive = weak or mixed curves, or effect the other way; inactive = no such curve, though single readings can be large or run the other way; the % refers to the signal ratio); conditions: HepG2 ARE-bla reporter, beta-lactamase FRET, 16 h; activation: at 73.3 µM (top of the series) unless noted
# In short: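 An ARE-responsive beta-lactamase gene stably integrated in HepG2 cells serves as reporter. After 5 h plating and 16 h compound incubation at 37 C, fluorescence of the B/G FRET substrate was measured.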
# [4] = qHTS assay for small molecule activators of the heat shock response signaling pathway (AID 743210; active = well fitted activation curve with a large enough effect in the signal ratio in the repeat runs, with a control signal flat, not every such curve was filed as active; inconclusive = weak or mixed curves; the % refers to the signal ratio); conditions: HeLa HSE-bla reporter, beta-lactamase ratio, 5 h; activation: at 62.6 µM (top of the series) unless noted
# In short: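 In HSE-bla HeLa cells, 5 h compound incubation (37 C) precedes addition of LiveBLAzer B/G substrate; after 2.5 h at room temperature, fluorescence intensity indicates reporter induction.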
# [5] = target: Peroxisome proliferator-activated receptor delta (Homo sapiens) (UniProt Q03181); test: qHTS assay to identify small molecule agonists of the peroxisome proliferator-activated receptor delta (PPARd) signaling pathway (AID 743212; calls by dose curve; for activation: % is set by controls: 0 for no effect and ±100 for the full control effect); conditions: HEK293H PPARd-UAS-bla, beta-lactamase FRET ratio, 17 h; activation: at 62.6 µM (top of the series) unless noted
# In short: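 HEK293H UAS-bla reporter cells, human PPARd system; compounds delivered in DMSO after 5 h plating, then at 37 C. Beta-lactamase FRET read, 2 h RT substrate step.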
# [6] = qHTS assay to identify small molecule antagonists of the peroxisome proliferator-activated receptor delta (PPARd) signaling pathway - cell viability counter screen (AID 743213); conditions: PPARd-bla HEK293H viability, CellTiter-Glo luminescence, 17 h; viability change, negative = cytotoxic: at 62 µM (top of the series) unless noted; note: nearly all actives have a fitted effect of over 50% in size
# In short: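 HEK293H PPARd UAS-bla cells, 5 h pre-incubation, compound + L165041 300 nM final, 17 h 37 C; B/G FRET substrate 2 h RT; then CellTiter-Glo 30 min RT, luminescence.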
# [7] = qHTS assay to identify small molecule agonists of the farnesoid-X-receptor (FXR) signaling pathway - cell viability counter screen (AID 743218); conditions: FXR-bla HEK293T viability, CellTiter-Glo luminescence, 16 h; viability change, negative = cytotoxic: at 62.6 µM (top of the series) unless noted; note: nearly all actives have a fitted effect of over 45% in size
# In short: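 In GeneBLAzer FXR-UAS-bla HEK 293T cells, compounds act for 16 h at 37 C. Cell viability is then scored in the reporter wells by CellTiter-Glo, 30 min at RT, luminescence.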
# [8] = qHTS assay to identify small molecule antagonists of the farnesoid-X-receptor (FXR) signaling pathway - cell viability counter screen (AID 743221; active = well fitted cell-killing curve with a large enough effect in the repeat runs, not every such curve was filed as active; inconclusive = weak or mixed curves, or effect the other way; inactive = no such curve, though single readings can be large or run the other way; note: nearly all actives have a fitted effect of over 50% in size); conditions: FXR-bla HEK293T viability, CellTiter-Glo luminescence, 16 h; activity change, negative = cytotoxicity: at 62.6 µM (top of the series) unless noted
# In short: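 Multiplexed counter screen: viability of FXR-bla HEK 293T cells under agonist stimulation by chenodeoxycholic acid (50 uM, final) and test compound for 16 h at 37 C, measured by CellTiter-Glo luminescence in the reporter wells.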
# [9] = target: Vitamin D3 receptor (Homo sapiens) (UniProt P11473); test: qHTS assay to identify small molecule agonists of the vitamin D receptor (VDR) signaling pathway (AID 743222; calls by dose curve); conditions: HEK293T VDR-UAS-bla, beta-lactamase FRET ratio, 16 h; activation: at 63.5 µM (top of the series) unless noted
# In short: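 Agonist activity measured in VDR-bla reporter cells. Exposure 16 h, 37C, 5% CO2; detection by B/G FRET substrate, 2 h RT.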
# [10] = target: Vitamin D3 receptor (Homo sapiens) (UniProt P11473); test: qHTS assay to identify small molecule antagonists of the vitamin D receptor (VDR) signaling pathway (AID 743223; active = well fitted inhibition curve with a large enough effect in the signal ratio in the repeat runs, not every such curve was filed as active; inconclusive = weak or mixed curves, or effect the other way; inactive = no such curve, though single readings can be large or run the other way; the % refers to the signal ratio; for activity change, negative = inhibition: % is set by controls: 0 for no effect and ±100 for the full control effect); conditions: VDR-UAS-bla HEK293T, beta-lactamase FRET ratio, 16 h; activity change, negative = inhibition: at 61 µM (top of the series) unless noted
# In short: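 Cells carrying a VDR-driven beta-lactamase reporter (VDR-bla) were co-treated with compound and 3 nM final 1alpha,25-dihydroxyvitamin D3 for 16 h at 37C; reporter activity was measured as FRET substrate fluorescence after 2 h at room temperature.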
# [11] = qHTS assay to identify small molecule agonists of the vitamin D receptor (VDR) signaling pathway - cell viability counter screen (AID 743224); conditions: VDR-bla HEK293T viability, CellTiter-Glo luminescence, 16 h; activity change, negative = cytotoxicity: at 62.6 µM (top of the series); note: nearly all actives have a fitted effect of over 50% in size
# In short: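 VDR-bla cell line, quantitative HTS format; 16 h compound incubation (37C, 5% CO2); ATP-based CellTiter-Glo luminescence measured in the reporter assay wells.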
# [12] = target: Peroxisome proliferator-activated receptor gamma (Homo sapiens) (UniProt P37231); test: qHTS assay to identify small molecule antagonists of the peroxisome proliferator-activated receptor gamma (PPARg) signaling pathway (AID 743191; calls by dose curve; note: nearly all actives have a fitted effect of over 30% in size); conditions: HEK293H PPARg-UAS-bla, beta-lactamase ratio, antagonist, 17 h; ratio activity, negative = inhibition: at 62.6 µM (top of the series) unless noted
# In short: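 Beta-lactamase reporter under UAS control in HEK293H PPARg-bla cells; compound treatment 17 h at 37C. Read-out: fluorescence intensity after 1 h room-temperature incubation with LiveBLAzer B/G FRET substrate.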
# [13] = qHTS assay for small molecule agonists of the antioxidant response element (ARE) signaling pathway - cell viability counter screen (AID 743203; calls by dose curve; note: nearly all actives have a fitted effect of over 55% in size); conditions: ARE-bla HepG2 viability, CellTiter-Glo luminescence, 16 h; viability change, negative = cytotoxic: at 73.3 µM (top of the series)
# In short: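 Cells (ARE-bla HepG2, 2,000/well) receive DMSO-dissolved compounds after a 5 hrs rest. Plates incubate 16 hrs at 37C/5% CO2. CellTiter-Glo luminescence is then recorded after 30 min at room temperature.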
# [14] = qHTS assay for small molecule activators of the heat shock response signaling pathway - cell viability counter screen (AID 743209); conditions: HSE-bla HeLa viability, CellTiter-Glo luminescence, 5 h; activity change, negative = cytotoxicity: at 62.6 µM (top of the series) unless noted; note: nearly all actives have a fitted effect of over 50% in size
# In short: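 Quantitative HTS format, Tox21 10K library. HeLa cells carrying an HSE-driven beta-lactamase reporter were treated 5 h at 37 C, then assessed for viability by CellTiter-Glo luminescence.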
# [15] = qHTS assay to identify small molecule agonists of the peroxisome proliferator-activated receptor delta (PPARd) signaling pathway - cell viability counter screen (AID 743211); conditions: PPARd-bla HEK293H viability, CellTiter-Glo luminescence, 17 h; activity change, negative = cytotoxicity: at 62.6 µM (top of the series) unless noted; note: nearly all actives have a fitted effect of over 55% in size
# In short: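 Counter screen for cytotoxicity run in parallel with the PPARd reporter screen. Beta-lactamase reporter HEK293H cells exposed to compounds 17 h; ATP-based CellTiter-Glo luminescence quantified viability.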
# [16] = target: Peroxisome proliferator-activated receptor delta (Homo sapiens) (UniProt Q03181); test: qHTS assay to identify small molecule antagonists of the peroxisome proliferator-activated receptor delta (PPARd) signaling pathway (AID 743215; active = well fitted inhibition curve with a large enough effect in the signal ratio in the repeat runs, not every such curve was filed as active; inconclusive = weak or mixed curves, or effect the other way; inactive = no such curve, though single readings can be large or run the other way; the % refers to the signal ratio;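 note: cells stimulated with agonist L165041 at 300 nM final during compound exposure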; for ratio activity, negative = inhibition: % is set by controls: 0 for no effect and ±100 for the full control effect); conditions: HEK293H PPARd-UAS-bla, beta-lactamase FRET ratio, antagonist, 17 h; ratio activity, negative = inhibition: at 62 µM (top of the series) unless noted
# In short: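 Antagonist-mode beta-lactamase reporter screen: HEK293H cells with UAS-bla under PPARd control, stimulated by 300 nM L165041 (final) alongside test compound for 17 h at 37 C, then FRET fluorescence after 2 h substrate incubation.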
# [17] = target: Bile acid receptor (Homo sapiens) (UniProt Q96RI1); test: qHTS assay to identify small molecule antagonists of the farnesoid-X-receptor (FXR) signaling pathway (AID 743217; active = well fitted inhibition curve with a large enough effect in the signal ratio in the repeat runs, not every such curve was filed as active; inconclusive = weak or mixed curves, or effect the other way; inactive = no such curve, though single readings can be large or run the other way; the % refers to the signal ratio); conditions: HEK293T FXR-UAS-bla, beta-lactamase ratio, CDCA-stimulated, 16 h; activity change, negative = inhibition: at 62.6 µM (top of the series) unless noted
# In short: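 Beta-lactamase reporter under UAS control in HEK 293T cells; compound exposure 16 h at 37 °C in the presence of chenodeoxycholic acid (50 uM final); signal from B/G FRET substrate after 2 h at room temperature.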
# [18] = target: Bile acid receptor (Homo sapiens) (UniProt Q96RI1); test: qHTS assay to identify small molecule agonists of the farnesoid-X-receptor (FXR) signaling pathway (AID 743220; active = well fitted activation curve with a large enough effect in the signal ratio in the repeat runs, not every such curve was filed as active; inconclusive = weak or mixed curves, or effect the other way; the % refers to the signal ratio); conditions: HEK293T FXR-UAS-bla, beta-lactamase FRET ratio, 16 h; activation: at 62.6 µM (top of the series) unless noted
# In short: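 Beta-lactamase reporter under UAS control in GeneBLAzer FXR HEK 293T cells (5000/well) measured with LiveBLAzer FRET substrate after 2 h at room temperature. Compound exposure lasted 16 h at 37C.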
# Potency is the fitted concentration of half-maximal effect; tags give direction and shape of the fitted curve or compound fluorescence and quenching.
# Chain of UniProt Q03181 (Q03181 whole entry, looked up): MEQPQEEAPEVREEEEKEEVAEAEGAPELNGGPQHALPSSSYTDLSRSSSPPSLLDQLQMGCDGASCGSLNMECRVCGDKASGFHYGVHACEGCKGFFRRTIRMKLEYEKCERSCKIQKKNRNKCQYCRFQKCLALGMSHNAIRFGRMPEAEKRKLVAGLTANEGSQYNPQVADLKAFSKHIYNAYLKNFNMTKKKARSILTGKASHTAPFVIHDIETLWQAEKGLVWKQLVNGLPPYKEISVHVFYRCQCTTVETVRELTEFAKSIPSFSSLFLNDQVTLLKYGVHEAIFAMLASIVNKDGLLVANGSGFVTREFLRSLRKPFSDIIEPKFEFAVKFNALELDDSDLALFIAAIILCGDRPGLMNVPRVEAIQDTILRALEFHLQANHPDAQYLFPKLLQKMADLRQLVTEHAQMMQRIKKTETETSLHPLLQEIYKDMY
# Chain of UniProt P11473 (P11473 whole entry, looked up): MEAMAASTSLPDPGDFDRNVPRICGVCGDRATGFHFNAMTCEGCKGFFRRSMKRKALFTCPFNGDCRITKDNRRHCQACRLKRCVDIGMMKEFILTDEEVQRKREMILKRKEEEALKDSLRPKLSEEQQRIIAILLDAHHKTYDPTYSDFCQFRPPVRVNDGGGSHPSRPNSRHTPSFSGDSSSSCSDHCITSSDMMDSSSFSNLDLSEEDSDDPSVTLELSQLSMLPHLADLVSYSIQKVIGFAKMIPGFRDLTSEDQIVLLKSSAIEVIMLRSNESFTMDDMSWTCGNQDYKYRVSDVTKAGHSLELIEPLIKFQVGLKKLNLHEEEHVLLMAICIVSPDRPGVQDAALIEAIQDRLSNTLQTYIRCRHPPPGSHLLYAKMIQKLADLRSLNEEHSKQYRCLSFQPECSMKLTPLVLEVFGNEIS
# Chain of UniProt P37231 (P37231 whole entry, looked up): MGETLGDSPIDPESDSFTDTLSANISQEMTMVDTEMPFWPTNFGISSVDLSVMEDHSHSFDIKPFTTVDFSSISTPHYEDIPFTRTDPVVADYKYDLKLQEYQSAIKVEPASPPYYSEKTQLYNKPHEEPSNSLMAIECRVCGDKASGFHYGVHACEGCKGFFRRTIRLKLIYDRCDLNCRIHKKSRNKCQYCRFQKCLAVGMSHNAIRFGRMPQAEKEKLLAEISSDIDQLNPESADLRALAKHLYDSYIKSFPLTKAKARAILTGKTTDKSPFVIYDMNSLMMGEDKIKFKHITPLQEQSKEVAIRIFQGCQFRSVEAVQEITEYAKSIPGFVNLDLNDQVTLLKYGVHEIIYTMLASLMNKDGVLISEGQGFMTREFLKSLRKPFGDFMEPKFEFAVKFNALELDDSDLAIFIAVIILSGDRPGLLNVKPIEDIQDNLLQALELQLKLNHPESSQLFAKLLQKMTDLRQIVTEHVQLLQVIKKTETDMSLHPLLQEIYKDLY
# Chain of UniProt Q96RI1 (Q96RI1 whole entry, looked up): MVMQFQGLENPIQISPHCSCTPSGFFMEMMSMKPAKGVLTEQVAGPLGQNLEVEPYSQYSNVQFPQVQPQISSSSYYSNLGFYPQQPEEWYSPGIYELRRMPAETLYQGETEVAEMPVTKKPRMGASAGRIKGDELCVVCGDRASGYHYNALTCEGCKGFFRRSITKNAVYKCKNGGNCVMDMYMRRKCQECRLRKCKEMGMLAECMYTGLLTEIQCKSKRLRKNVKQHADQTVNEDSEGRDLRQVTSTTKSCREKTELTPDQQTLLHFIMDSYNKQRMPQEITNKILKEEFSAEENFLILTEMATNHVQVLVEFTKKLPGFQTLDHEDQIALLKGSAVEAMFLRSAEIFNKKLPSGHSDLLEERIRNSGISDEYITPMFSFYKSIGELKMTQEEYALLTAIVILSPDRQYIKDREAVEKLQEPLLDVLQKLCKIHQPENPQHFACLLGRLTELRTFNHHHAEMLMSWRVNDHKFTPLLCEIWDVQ
smiles,measurement,setting,value
C=Cc1ccc(S(=O)(=O)O)cc1,Potency,[1],inconclusive: 1.95 µM [fluorescent]
same,Potency,[2],"inconclusive: 6.17 µM [cytotoxic, full curve]"
same,Potency,[3],"inconclusive: 54.5 µM [rising, partial curve]"
same,Potency,[4],"inconclusive: 5.49 µM [falling, full curve]"
same,activation,[5],inconclusive: 7.72%
same,Potency,[6],"inconclusive: 4.9 µM [cytotoxic, full curve]"
same,Potency,[7],"inconclusive: 13.8 µM [cytotoxic, full curve]"
same,Potency,[8],"inconclusive: 11 µM [falling, full curve]"
same,Potency,[9],"inconclusive: 0.195 µM [rising, full curve, poor fit]"
same,Potency,[10],inactive
same,Potency,[11],"inconclusive: 27.5 µM [cytotoxic, partial curve]"
CCCCCCCCC(CCCCCC)C(=O)O (stereo not drawn),activation,[1],inconclusive: -15.5%
same,Potency,[12],inconclusive: 13.8 µM
same,Potency,[13],"inconclusive: 24.3 µM [cytotoxic, full curve]"
same,Potency,[14],active: 17.4 µM
same,Potency,[4],inconclusive: 36 µM
same,Potency,[15],"inconclusive: 19.5 µM [cytotoxic, partial curve, poor fit]"
same,"ratio activity, negative = inhibition",[16],inconclusive: -50.5%
same,"activity change, negative = inhibition",[17],inconclusive: -33.9%
same,Potency,[7],"inconclusive: 12.3 µM [cytotoxic, partial curve]"
same,Potency,[8],"inconclusive: 61.6 µM [rising, single point]"
same,Potency,[9],inactive
same,Potency,[11],"inconclusive: 21.9 µM [cytotoxic, single point]"
O=C1OC[C@H](Cc2cccc(O)c2)[C@H]1Cc1cccc(O)c1,Potency,[1],inactive
same,Potency,[2],"inconclusive: 0.741 µM [rising, partial curve, poor fit]"
same,Potency,[3],inactive
C1CCC(C(CC2CCCCN2)C2CCCCC2)CC1 (stereo not drawn),Potency,[1],inconclusive: 26.8 µM [single point]
same,Potency,[2],active: 33.5 µM
same,Potency,[3],inconclusive: 33.5 µM
same,Potency,[4],inconclusive: 33.5 µM [single point]
same,Potency,[15],active: 26.6 µM
same,activation,[5],inconclusive: 15.1%
same,Potency,[6],inconclusive: 33.5 µM [cytotoxic]
same,Potency,[17],inconclusive: 33.5 µM
same,Potency,[7],active: 23.7 µM
same,Potency,[18],inconclusive: 33.5 µM [single point]
same,Potency,[8],"inconclusive: 33.5 µM [falling, single point]"
same,Potency,[10],active: 21.3 µM
same,Potency,[11],"inconclusive: 29.8 µM [cytotoxic, partial curve, poor fit]"
O=C(O)CCCCCCCCCCCBr,Potency,[1],inconclusive: 55.1 µM
same,Potency,[12],inconclusive: 55.1 µM
same,Potency,[3],"inconclusive: 48.7 µM [rising, partial curve, poor fit]"
same,Potency,[9],"inconclusive: 61.8 µM [rising, single point]"
same,Potency,[10],inconclusive: 39 µM
Brc1cc(Br)c(Oc2cc(Br)c(Br)cc2Br)cc1Br,activation,[1],inconclusive: 5.31%
same,"ratio activity, negative = inhibition",[12],inconclusive: -1.83%
same,Potency,[14],inactive
same,Potency,[4],"inconclusive: 26.9 µM [falling, single point]"
same,Potency,[15],"inconclusive: 23.9 µM [cytotoxic, single point]"
same,Potency,[5],inconclusive: 26.9 µM [single point]
same,Potency,[6],active: 23.9 µM
same,Potency,[9],"inconclusive: 26.9 µM [rising, single point]"
same,"activity change, negative = inhibition",[10],inconclusive: 6.92%
C#C[C@]1(O)CC[C@H]2[C@@H]3CCC4=Cc5oncc5C[C@]4(C)[C@H]3CC[C@@]21C,activation,[1],inconclusive: -15.1%
same,Potency,[2],active: 54.9 µM and inconclusive: 29.8 µM [cytotoxic]
same,Potency,[13],"inconclusive: 68.6 µM [cytotoxic, single point] and inconclusive: 33.5 µM [cytotoxic, single point]"
same,Potency,[14],"inconclusive: 54.9 µM [cytotoxic] and inconclusive: 6.68 µM [cytotoxic, partial curve, poor fit]"
same,Potency,[15],"inconclusive: 61.6 µM [cytotoxic, single point] and inconclusive: 33.5 µM [cytotoxic, single point]"
same,Potency,[16],"inconclusive: 49 µM [fluorescent, partial curve, poor fit]"
same,Potency,[17],inconclusive: 54.9 µM [partial curve] and inconclusive: 29.8 µM
same,Potency,[7],"inconclusive: 54.9 µM [cytotoxic] and inconclusive: 33.5 µM [cytotoxic, single point]"
same,Potency,[18],"inconclusive: 26.6 µM [rising, partial curve, poor fit]"
same,activation,[18],inconclusive: -11.6%
